The test system of this assay is various cancer cell lines. The settings on record: TRAIL protein 100 ng/ml plus ActD 100 ng/ml, 12 hours.

As for “recombinant human TRAIL(114-281) protein: recombinant human TRAIL amino acid 114-281 protein”, the “apoptotic activity of TRAIL protein in the presence of ActD” value is “significantly enhanced” and the “killing of target cells with the aid of ActD, regardless of intrinsic resistance to TRAIL alone” value is “killed most target cells tested”.

Source of the values: patent publication US20020128438A1, “DNA cassette for the production of secretable recombinant trimeric TRAIL proteins, tetracycline/ doxycycline-inducible adeno-associated virus vector, their combination and use in gene therapy” (priority 2000, published 2002).
